We go through one protein from PMC5905293 (Molecular Biology of the Cell, 2018).

This data set concerns the molecule itself. Kind of data set: native gel or EMSA. On the technique in general: Mobility shift assays separate free from complexed probe on a gel.

B1: GJA[…]k (full-length connexin43) (natural protein)
chain: not shown
Turning to B1, the stoichiometry N (usually a count of units in the complex or per binding partner) stood at 6.
